The % Inhibition is the change of the read-out against control, counted positive when it falls.

Out of some 150,000 compounds screened, about 540 (0.36%) showed an effect of 50% or more. Some of the results follow.

The subject of the assay is Plasmodium falciparum. The assay is described as follows: Primary screen in NF54 nanoGlo assay, in single point, at 2uM, 72h; a lower Z score goes with more inhibition. The assay is classed as functional, Erythrocyte. Conditions: timepoint 72 hour.
Take `COc1cc(N2CCC(c3nnc(CN4CCCC4)n3C)CC2)ncn1`: the “% Inhibition” value is -9% and the Z score is recorded as 1.11.

For `O=C(c1ccc(Oc2nccs2)cc1)N1Cc2cncnc2C1`, the “% Inhibition” value was -4% and the Z score is given as 0.82.

On to `CN([C@H]1CC[C@@H](C(F)(F)F)CC1)S(=O)(=O)c1ccsc1`, for which the “% Inhibition” value is reported as -14% and the Z score was determined as 2.28.

Consider `O=S(=O)(NCC1(c2ccccn2)CCC1)C1CCCCC1`, for which the “% Inhibition” value is recorded as -7% and the Z score stood at 1.04.

For `CC(=O)N1CCCC1C1CCCN1C(C)c1nc(-c2ccc(Cl)cc2)no1` (stereo unspecified), the “% Inhibition” value is on record as -7% and the Z score was found to be 0.76.

Take `Cc1ccccc1C(=O)NCc1ccnc(-c2cccnc2)c1`: the “% Inhibition” value is given as -1% and the Z score is recorded as 0.11.

For the molecule `Cc1nc(-c2cccc(C(=O)N3CC=C[C@@H]3C(C)C)c2)c2ccccc2n1`, the “% Inhibition” value is listed as -6% and the Z score was determined as 1.21.

Regarding `CCn1ncc(NC(=O)Cn2cc(-c3nccc(OC)n3)cn2)n1`, the “% Inhibition” value is -7% and the Z score stood at 1.03.

Regarding `Cn1cccc1CN(C(=O)c1ccno1)C1CC1`, the “% Inhibition” value is recorded as 1% and the Z score is listed as -0.15.

As for `Cc1nc(O)nc(O)c1CN1CCOCC1`, the “% Inhibition” value is listed as -10% and the Z score came out at 1.65.

As to `CC(C)n1cccc1C(=O)NCCCc1nnn[nH]1`, the “% Inhibition” value is recorded as -1% and the Z score is recorded as 0.22.

In the case of `Cc1nc(N[C@@H](C)c2ccncc2)c2c(C)csc2n1`, the “% Inhibition” value is 1% and the Z score was -0.1.

`CC(=O)N1CCN(C(=O)c2ccc(COc3ccc4c(c3)[C@H](c3ccccc3)N(C(=O)C(C)C)CC4)o2)CC1`: the “% Inhibition” value is recorded as -2% and the Z score worked out at 0.38.

On to `COc1ccc(CCN2CCC[C@]3(C2)C(=O)N(C)C(=O)N3C)cc1`, for which the “% Inhibition” value is on record as -13% and the Z score came out at 1.71.

On to `COC[C@H]1CCN(Cc2nc(CCc3ccccc3)no2)C1`, for which the “% Inhibition” value is reported as 12% and the Z score is listed as -1.65.

Regarding `Cc1ccc(-c2nc(=O)c(CCC(=O)NCCCN3CCOCC3)n[nH]2)cc1Cl`, the “% Inhibition” value was -8% and the Z score is 0.9.

On to `COc1cc(Cl)c(C)cc1NC(=O)CCNc1ncccc1C#N`, for which the “% Inhibition” value is given as -2% and the Z score is 0.38.

As for `NC(=O)c1ccsc1NC(=O)CN1CCCC2CCCCC21` (stereo unspecified), the “% Inhibition” value was -7% and the Z score is 1.43.

For `O=C(NCc1ccccc1)[C@H]1CC(=O)N(c2ccc(OCC(=O)N3CCCC3)cc2)C1`, the “% Inhibition” value was determined as 22% and the Z score is recorded as -2.51.

In the case of `O[C@H]1[C@@H]2CC[C@H]1CN(C/C=C/c1ccc(F)cc1)C2`, the “% Inhibition” value was -7% and the Z score amounted to 0.87.

On to `Cn1cc(C(=O)N2CC[C@@]3(CCCN(CC4CC4)C3=O)C2)ccc1=O`, for which the “% Inhibition” value is listed as -13% and the Z score amounted to 2.08.

For the molecule `Cc1nc2c(c(N(C)Cc3csc(C(C)C)n3)n1)CNC2`, the “% Inhibition” value is -8% and the Z score was found to be 1.15.

As to `CCn1ccnc1CN(C)C(=O)NCCc1nc(C)c2c(n1)CCC2`, the “% Inhibition” value came to 5% and the Z score was -0.71.

On to `c1coc(CNc2nc(C3CCCC3)nc3c2CCOCC3)c1`, for which the “% Inhibition” value is -4% and the Z score amounted to 0.58.

With `Cc1csc([C@H](C)N(C)C(=O)c2cnc(C3CC3)nc2)n1`, the “% Inhibition” value is recorded as 2% and the Z score is -0.3.

For `CC(NC(=O)C1CC(=O)N(C)C1)c1ccc(-c2cccnc2)cc1` (stereo unspecified), the “% Inhibition” value is recorded as -2% and the Z score came out at 0.16.

For the molecule `Cc1c(C(=O)N2CCN(c3ccccc3)CC2)oc2cc3sc(N4CCCCC4)nc3cc12`, the “% Inhibition” value is recorded as -10% and the Z score stood at 1.25.

In the case of `CN(CCc1noc(-c2cc3ccccc3[nH]2)n1)C(=O)c1ccc(N(C)C)cc1`, the “% Inhibition” value amounted to 4% and the Z score is -0.69.

Take `CCc1ccc([C@H](C)NCCCc2c(C)noc2C)o1`: the “% Inhibition” value amounted to 0% and the Z score is -0.03.

Regarding `CN(CCC1CCOCC1)C(=O)c1cc(Cn2ccc3ccccc32)[nH]n1`, the “% Inhibition” value stood at 6% and the Z score is on record as -0.65.

`CCOC1CC(N(C)C(=O)Cc2c[nH]c3cc(F)ccc23)C1(C)C` (stereo unspecified): the “% Inhibition” value is -2% and the Z score was determined as 0.25.

As to `CCc1nnc(NC(=O)CNc2cccc(C(F)(F)F)c2)s1`, the “% Inhibition” value is listed as -6% and the Z score is reported as 1.01.

For `CC(C)N=C(NCc1cccnc1N1CCOCC1)c1cccs1`, the “% Inhibition” value is -4% and the Z score was 0.71.

For `O=C(NCCc1ccccc1)[C@H]1CNC[C@@H](COc2ccc3c(c2)CCC3)C1`, the “% Inhibition” value is on record as -7% and the Z score is listed as 0.86.

Take `CN(C)CCNc1[nH]c2nnc(N)c-2c2c1CN(Cc1ccccc1)CC2`: the “% Inhibition” value is -3% and the Z score came to 0.47.

As for `Cc1c(NC(=O)Nc2ccc(Cl)cc2)cc(NC(=O)Nc2ccc(Cl)cc2)c(C)c1N1CCCC1=O`, the “% Inhibition” value is recorded as 10% and the Z score was -1.55.

Take `O=C(Nc1cccc(-c2cnc[nH]2)c1)N1CCC(F)(F)CC1`: the “% Inhibition” value was -18% and the Z score is 2.17.

Take `CCOc1ccc(NC(=O)[C@H](CC)n2c(C)nc3onc(C)c3c2=O)cc1`: the “% Inhibition” value is recorded as -4% and the Z score amounted to 0.55.

Turning to `O=C(Cc1csc(Nc2ncccn2)n1)N1CCCC1`, the “% Inhibition” value was -2% and the Z score is 0.4.

Consider `N[C@H](Cc1c[nH]c2ccccc12)C(=O)NCc1cccnc1N1CCOCC1`, for which the “% Inhibition” value is -8% and the Z score came out at 1.28.

For the molecule `CCCc1nc2ccccc2n1[C@@H](CC)C(=O)N1CCC2(CC1)COC(=O)O2`, the “% Inhibition” value is -5% and the Z score is given as 0.64.

On to `N#Cc1cc2ccccc2nc1OC[C@H]1CCCN1`, for which the “% Inhibition” value is reported as -21% and the Z score came to 3.08.

On to `O=C(NCCn1ccc2cc(Br)ccc21)c1ccncc1`, for which the “% Inhibition” value is -2% and the Z score is 0.29.

On to `CC(=O)N/C(=C\c1ccc(F)cc1)C(=O)N(C)C`, for which the “% Inhibition” value is on record as -32% and the Z score is listed as 3.7.

`COc1cccc([C@H](c2oc3ccccc3c2NC(=O)c2ccccc2)N2CCC(C)CC2)c1OC`: the “% Inhibition” value was -9% and the Z score came out at 1.39.

As to `CC(C)Cc1nc(N2CCCN(C(=O)C3CCCCC3)CC2)c2c(-c3cccc(C(F)(F)F)c3)noc2n1`, the “% Inhibition” value is -10% and the Z score was determined as 1.45.

Take `CC(C)n1c(=O)[nH]c2cc(C(=O)N3CCOCC3)ccc2c1=O`: the “% Inhibition” value turned out to be 4% and the Z score is recorded as -0.48.

Turning to `Cc1cc(-c2cc(O)cc(CC[C@H]3CCCCN3)c2)nc(N)n1`, the “% Inhibition” value is listed as -5% and the Z score amounted to 0.81.

On to `Cc1nnc(-c2nn(-c3ccc(C(=O)N4CCCC[C@@H]4C)cc3)c(-c3ccc(F)cc3)c2C)o1`, for which the “% Inhibition” value was -11% and the Z score worked out at 1.55.

For the molecule `Cn1cncc1C(=O)NCC1(COc2ccccc2)CC1`, the “% Inhibition” value is given as -7% and the Z score came out at 0.89.

Consider `CCC(CC)n1nc(C)cc1NC(=O)Cc1nc2ccccc2o1`, for which the “% Inhibition” value is -3% and the Z score stood at 0.4.

As for `CCc1ncc(NC(=O)N(Cc2ccoc2)C2CC2)cn1`, the “% Inhibition” value is -12% and the Z score worked out at 1.22.

As for `O=C(CCn1cnc2cc(-c3noc(-c4ccncc4)n3)ccc21)N1CCCCCC1`, the “% Inhibition” value is -31% and the Z score turned out to be 4.04.

Values taken from ChEMBL document CHEMBL4888484, “Replenishing the malaria drug discovery pipeline: Screening and hit evaluation of the MMV Hit Generation Library 1 (HGL1) against asexual blood stage Plasmodium falciparum ,using a nano luciferase reporter read-out” (2022).
